# Reference: PubChem BioAssay (NCI)
# “And” between values parts separate entries of the source, which are not always exact repeats. Equal entries are not always repeated.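 A five-concentration, 48-hour dose response in 96-well plates underlies each endpoint, interpolated linearly between surrounding concentrations. At the GI50, growth is halved. TGI is the concentration that stops growth completely.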
# Tested on: NCI-H322M lung
# Test: inhibition of tumour cell growth, NCI panel, 48 h
SMILES,TGI,GI50
COc1ccc(Br)c(C(=O)N2CCc3ccccc32)c1N,> 100 µM,–
Cc1ccc(-c2cc(-c3ccc(Cl)cc3)nc(/N=C3\C(=O)N(CN(C)C)c4ccccc43)n2)cc1,> 100 µM,–
CC(C)OP(=O)(OC(C)C)C(C)(C)O,> 100 µM,–
COc1cc2c3cc1Oc1c(OC)c(OC)cc4c1C(Cc1ccc(O)c(c1)Oc1ccc(cc1)CC3N(C)CC2)N(C)CC4 (configuration not stated),> 100 µM,28.5 µM
COC(=O)[C@@](NC(=O)OCc1ccccc1)([C@H](C)O)C(F)(F)F,> 100 µM,–
COc1cc2cc(Oc3cccc(NC(=O)Nc4cc(C(F)(F)F)cc(C(F)(F)F)c4)c3)c(C)nc2cc1OC,2.57 µM,1.16 µM
O=[N+]([O-])c1cccc2nccc(NCCN3CCOCC3)c12,> 39.5 µM,–
Nc1ccccc1C(=O)N=Nc1c(O)[nH]c2ccccc12,> 100 µM,–
NCCCN=c1ccc2c3c1c(O)c1c(O)ccc(=O)c1c3[nH]n2CCNCCO,15.1 µM and 16.8 µM,3.7 µM
O=[N+]([O-])/C(Cl)=C(/C(Cl)=C(Cl)Cl)N1CCOCC1,32.2 µM,–
O=C(Cn1c2ccc(Br)cc2c2nc3ccccc3nc21)Nc1ccccc1,> 100 µM,–
Cc1cc(NN=C(c2ccc(O)cc2)c2ccc(O)cc2)c([N+](=O)[O-])cc1[N+](=O)[O-],25.7 µM,4.71 µM
C=CCN1CCC(c2cc(C(=O)OCC)[nH]c2-c2cc(C)no2)C1=O (configuration not stated),> 100 µM,–
C=C1CC[C@H]2C(C)=CC[C@H]3C(=C)C(=O)O[C@@H]3[C@@H]12,> 100 µM,–
COc1ccc2nc3ccc(OC)cc3c(SCCCl)c2c1,> 100 µM,–
CCOC(=O)[C@@H]1CSC(CC)=C(C(=O)O)N1,> 100 µM,> 100 µM
COc1cc(OC)c2c(=O)c3cccc(C)c3n(C)c2c1,> 100 µM,–
O=C(O)CCCCC1CCSS1 (configuration not stated),> 100 µM,–
CC(Cn1c2c(c3cc(O)ccc31)CCc1ccc(O)cc1-2)N(C)C (configuration not stated),32.2 µM,–
CCCCC1(C(NC(=O)c2ccccc2Cl)c2ccncc2)C(=O)N(c2ccccc2)N(c2ccccc2)C1=O (configuration not stated),> 100 µM,–
O=[N+]([O-])c1ccc(N=Nc2c(O)[nH]c3ccccc23)c([N+](=O)[O-])c1,> 100 µM,–
COc1ccc(CCn2cncn2)cc1,> 100 µM,–
Cc1nc2ccccc2c(=O)n1/N=C(\N=Nc1cc(Cl)ccc1Cl)c1ccccc1,> 100 µM,–

SMILES,TGI,GI50
Cc1cc(O)c(/C=N/C(=S)Nc2ccc(S(N)(=O)=O)cc2)c(=O)o1,> 100 µM,–
O=c1c2cc(O)ccc2n2nnc3ccc(NCCNCCO)c1c32,40.3 µM and 10.7 µM,5.18 µM and 2.48 µM
O=NNc1ccc(S(=O)(=O)c2ccc3ccccc3c2)cn1,> 100 µM,–
O=c1c(Sc2c(SCSc3cnc4ccccc4c3Sc3c[nH]c4ccccc4c3=O)cnc3ccccc23)c[nH]c2ccccc12,> 100 µM,–
O=c1cccc(Cl)[nH]1,> 100 µM,–
Cc1cn(C2CC(N=[N+]=[N-])C(COP(=O)(O)OCC3OC(n4cc(F)c(=O)[nH]c4=O)CC3O)O2)c(=O)[nH]c1=O (configuration not stated),> 100 µM,–
CC(C)(O)c1cc2c(cc1C(C)(C)O)-c1ccccc1-2,> 100 µM,–
CCOc1ccc(NC(=O)C(=O)Nn2c(N)nnc2N)cc1,> 100 µM,–
CC1=NN(c2nc(N)nc(/C(C#N)=C\c3ccc(-c4ccc([N+](=O)[O-])cc4)o3)n2)C(C)(C)C1,> 100 µM,–
CC(C)(C)OC(=O)N1CCCC1C(=O)NC(c1ccccc1)c1ccccc1 (configuration not stated),> 100 µM,–
COC(=O)/C=C\C(C#N)(C#N)N=Cc1ccc(OC)cc1,> 58.7 µM,–
CCCCCCCCCCCCCCCCNC(=O)/C(=C\c1ccc(Cl)c(Cl)c1)NC(=O)c1ccccc1,> 100 µM,–
CCOC(=O)c1c(CN2CCN(C)CC2)nc2ccc(Cl)cc2c1-c1ccccc1,25.8 µM,12.5 µM
O=c1[nH]cnc2n[nH]nc12,> 100 µM,–
O=C1NC(N/N=C\c2ccccc2)=N/C1=C/c1ccccc1,> 100 µM,–
C=CC(=O)Nc1cc2c(Nc3ccc(F)c(Cl)c3)ncnc2cc1C#CC(C)(C)N1CCN(C)CC1,4.48 µM,0.23 µM
COc1cccc(/C=N\NC(=O)C(C)SC(C)C(=O)N/N=C/c2cccc(OC)c2)c1 (configuration not stated),> 60.4 µM,–
O=C1Cc2cn[nH]c2-c2ccccc2N1,> 100 µM,–
CC(Oc1ccc(Cl)cc1Cl)C(=O)NN1C(=O)CC(=O)N(c2ccccc2)C1=S (configuration not stated),> 100 µM,–
O=C1Oc2ccccc2C(=O)/C1=C/N1C(=O)CNC1=S,> 100 µM,–
CCOC(=O)C1=C(OC(OCC)C(CC)[Se]c2ccccc2)CCC1 (configuration not stated),> 100 µM,–
O=[N+]([O-])c1ccc(-c2nn3c(C45CC6CC(CC(C6)C4)C5)nnc3s2)c(Cl)c1,> 100 µM,–
NC(=O)/C(=C/n1cnc(-c2cc(C(F)(F)F)cc(C(F)(F)F)c2)n1)c1cncnc1,12.4 µM,0.46 µM

SMILES,TGI,GI50
COc1cc(N(C)C)c(OC)cc1C=C1C=CC=C1,> 100 µM,–
Cc1sc2nc3n(c(=O)c2c1C)N=CN(c1ccc(Cl)cc1)C3,> 100 µM,–
COc1ccc(-c2cc(/C=C/C(=O)c3ccc(N)cc3)[nH]n2)cc1,9.27 µM,1.84 µM
Cc1ccc(OC(=O)N2C/C(=C\c3ccccc3)C(=O)/C(=C/c3ccccc3)C2)cc1,> 100 µM,–
C#C[C@]1(O)CC[C@H]2[C@@H]3CCc4cc(O)ccc4[C@H]3CC[C@@]21C,> 100 µM,–
CC[C@H]1OC(=O)[C@H](C)[C@@H](O[C@H]2C[C@@](C)(OC)[C@@H](O)[C@H](C)O2)[C@H](C)[C@@H](O[C@@H]2O[C@H](C)C[C@H](N(C)C)[C@H]2O)[C@](C)(OC)C/C(C)=C2/O[C@@]1(C)C=C2C,3.05 µM,1.68 µM
CNC(=O)OCc1nc(SC)n(C)c1COC(=O)NC,514 µM,–
CCCc1cc(OC(=O)c2c(O)cc(OC)cc2CCC)cc(O)c1C(=O)O,55.7 µM,–
CCCCCCCCCCCCCCCC[n+]1ccccc1,4.55 µM,2.03 µM
CCOC(=O)/C(=C\c1ccc2ccccc2c1)P(=O)(OCC)OCC,17.1 µM,4.28 µM
COCC(C(=O)OC1C/C=C/C=C/C(=O)OC(C(C)C(O)C(C)CCC(OC(=O)C(C)N(C)C)C(C)C(OC(C)=O)C(C)/C=C/N(C)C=O)C/C=C/C(OC)CC(C)C/C=C(\C)C(OC)CCC(C)C(O)C1C)N(C)C (configuration not stated),> 1 µM,< 0.0001 µM
COC(=O)c1ccc2c(c1)CC1(C2)Cc2ccccc2C1=O (configuration not stated),> 100 µM,–
O=C(O)c1ccccc1NCn1c(=S)sc2ccccc21,> 100 µM,–
CCCCCC[C@H]1C(=O)O[C@H](C)[C@H](NC(=O)c2cccc(NC=O)c2OC)C(=O)O[C@@H](C)[C@@H]1OC(=O)CCC (tested in a mixture with another compound),69.1 µM,19.4 µM
CC(=O)Oc1cc2cnc3c4cc(OC(C)=O)c(OC(C)=O)cc4ccc3c2cc1OC(C)=O,8.31 µM,1.79 µM
CCn1c(-c2nonc2N)nc2cnc(Oc3cccc(NC(=O)c4ccc(N(C)C)cc4)c3)cc21,> 25 µM,3.03 µM
Cc1c(/C=N/NC(=S)N2CCCCC2)c(=O)n(-c2ccccc2)n1C,> 100 µM,–
C/C(C=O)=C/[C@@]1(C)O[C@@H](C)[C@@](C)(O)[C@@H]1O,> 100 µM,–
CCOC(=O)c1c(NC(=O)c2ccc(Cl)cc2)sc2c(CN(C)C)c(O)ccc12,58.4 µM,9.74 µM
COc1ccc(C(O)c2cc3c(N)c(C(=O)Nc4cccc(Br)c4C)sc3nc2C)cc1 (configuration not stated),> 33.3 µM,0.689 µM
CC(C)(C)OC(=O)CCCCCNC(=O)CCCCCNC(=O)CCC(CN(CC(=O)OCc1ccccc1)CC(=O)OCc1ccccc1)N(CC(=O)OCc1ccccc1)CC(=O)OCc1ccccc1 (configuration not stated),> 100 µM,–
O=C1CCC(=O)N1Sc1ccccc1,> 100 µM,–
